In all, about 150,000 compounds went through this assay and about 540 (0.36%) showed an effect of 50% or more. Some of the results follow.
System: Plasmodium falciparum
Assay: Primary screen in NF54 nanoGlo assay, in single point, at 2uM, 72h; a lower Z score goes with more inhibition
Format: functional, Erythrocyte
Conditions: timepoint 72 hour

For `CC(C)c1ccc(C(=O)OCC(=O)Nc2cccc(S(=O)(=O)NC3=NCCC3)c2)cc1`, which “% Inhibition” value is on record?
The value was -9%.

What about the Z score of the same compound?
Its Z score is 1.16.

How did the “% Inhibition” value turn out when `CN1CCC(CCNC(=O)N2CC(Oc3ccccc3)C2)CC1` was run?
Its value is -13%.

What about the Z score of the same compound?
Its Z score is 2.06.

Which “% Inhibition” value does the source give for `C=CCn1ncc(CN(C)CC2(C)COC2)c1C` here?
Its value is -15%.

And the Z score?
The Z score was 3.01.

What does the source list for `CN1CCN(Cc2cc(O)c3cc(F)ccc3n2)[C@@H](c2ccccc2)C1`?
% Inhibition: -6%; Z score: 1.05

Which results are given for `COc1cc(OC)c(Nc2c(C(=O)N3CCCCCC3)cnc3nc(C)ccc23)cc1Cl`?
% Inhibition: -6%; Z score: 0.95

`C[C@@H]1Oc2ccc(N)cc2CN(CC2CCCCC2)C1=O` was tested. Which “% Inhibition” value did it give?
Its value is -18%.

What about the Z score of the same compound?
Its Z score is 1.73.

With `CC(C)Oc1ccc(C(=O)N(CN2CCCC2=O)c2cccc(Cl)c2)cc1` as the compound, how does the “% Inhibition” value read?
Its value is -5%.

What about the Z score of the same compound?
Its Z score is 0.82.

Which results are given for `CN(C)CCN(Cc1ccsc1)Cc1ncc[nH]1`?
% Inhibition: -16%; Z score: 2.33

For `CC(C)(C)OC(=O)Nc1sccc1Cl`, which “% Inhibition” value is on record?
The value was -5%.

What about the Z score of the same compound?
Its Z score is 0.7.

Which results are given for `Cc1cc(=O)nc2n(CCCN3C(=O)NC(C)(C)C3=O)ccn12`?
% Inhibition: 3%; Z score: -0.68

Which “% Inhibition” value does the source give for `c1ccc(OCCN2CCC([C@H]3c4[nH]cnc4CCN3Cc3cccnc3)CC2)cc1` here?
The value was -7%.

And the Z score?
Its Z score is 1.07.

Which results are given for `CC1CCN(S(=O)(=O)c2ccc3c(ccc(=O)n3CC(=O)NCc3ccc4c(c3)OCO4)c2)CC1`?
% Inhibition: -3%; Z score: 0.41

What does the source list for `Cc1cncc(-c2nc(CC(N)=O)nn2CC(C)(C)O)c1`?
% Inhibition: -13%; Z score: 1.26

How did the “% Inhibition” value turn out when `COc1ccc(-c2nnc(C)o2)cc1NC(=O)Cc1cc(C)no1` was run?
Its value is -9%.

And the Z score?
The Z score was 1.81.

`CCn1ncnc1[C@H](C)NC(=O)Cc1c(C)nc2ccccn12` was tested. Which “% Inhibition” value did it give?
The value was -13%.

What about the Z score of the same compound?
The Z score was 1.8.

Which “% Inhibition” value does the source give for `Cc1ccc(-c2cn[nH]c2[C@H]2CCCN(C(=O)c3cnn4ccn(C)c34)C2)cc1` here?
The value was -17%.

And the Z score?
Its Z score is 2.2.

What does the source list for `COCc1nc(CN2CCOc3c(Cl)cccc32)cs1`?
% Inhibition: -1%; Z score: 0.12

What does the source list for `C(#CCN1CCCCC1)COC(c1ccccc1)c1ccccc1`?
% Inhibition: 1%; Z score: -0.17

For `CO[C@H]1C[C@@H](CO)N(C(=O)Nc2cnc(C(F)(F)F)cc2C)C1`, which “% Inhibition” value is on record?
Its value is -10%.

What about the Z score of the same compound?
Its Z score is 1.99.

How did the “% Inhibition” value turn out when `CN(Cc1nnnn1CC(F)(F)F)C1(CO)CC1` was run?
The value was 8%.

What about the Z score of the same compound?
Its Z score is -0.83.

For `C[C@@H](CN1CCOCC1)NC(=O)C1C(=O)CC(C)(C)CC1=O`, which “% Inhibition” value is on record?
Its value is -10%.

What about the Z score of the same compound?
Its Z score is 1.58.

`O=C(Nc1cccnn1)NC1CCOC(c2ccccc2)C1` (centres undefined) was tested. Which “% Inhibition” value did it give?
Its value is -5%.

What about the Z score of the same compound?
The Z score was 0.72.

`CC(C)(CNC(=O)c1ccc(Cl)cc1Br)C(N)=O` was tested. Which “% Inhibition” value did it give?
The value was -10%.

And the Z score?
The Z score was 1.29.

For `COCCN1C[C@@H](CNC(=O)Nc2cccc3nc(C)ccc23)CC1=O`, which “% Inhibition” value is on record?
The value was -8%.

What about the Z score of the same compound?
Its Z score is 1.22.

Which “% Inhibition” value does the source give for `Cc1ccc(-c2cc3c(N4CCC(C(=O)NCCCc5ccccc5)CC4)nccn3n2)cc1C` here?
The value was -3%.

And the Z score?
Its Z score is 0.26.

Which “% Inhibition” value does the source give for `O=C1CCN(c2ncnc3ccccc23)CCN1` here?
Its value is -11%.

And the Z score?
The Z score was 1.56.

With `Cc1cc(C(=O)N(Cc2cccnc2)c2ccc(Cl)cc2)ncn1` as the compound, how does the “% Inhibition” value read?
Its value is -3%.

And the Z score?
Its Z score is 0.41.

How did the “% Inhibition” value turn out when `O=C(N[C@@H]1CN(C2CCC2)C[C@H]1CO)c1ccccc1` was run?
Its value is -10%.

And the Z score?
Its Z score is 1.69.

How did the “% Inhibition” value turn out when `O=c1c2ccccc2nnn1CCOc1ccc(F)cc1` was run?
Its value is -13%.

What about the Z score of the same compound?
Its Z score is 1.5.

How did the “% Inhibition” value turn out when `COc1cc2cc(c1)C(=O)NCCCC(=O)N[C@H]1CN(C(=O)c3cnn(Cc4ccccc4)c3)CC[C@@H]1OCc1cccc(c1)O2` was run?
Its value is -10%.

And the Z score?
Its Z score is 1.84.

Which results are given for `CN(C)C1CCC2C(C1)OCCN2C(=O)c1cc(C(C)(C)C)on1` (centres undefined)?
% Inhibition: -9%; Z score: 1.71

How did the “% Inhibition” value turn out when `Nc1cccnc1-c1cccc(C(=O)N2CCC(F)(F)CC2)c1` was run?
The value was 6%.

And the Z score?
The Z score was -1.15.

`CC(C)(C)C1(NC(=O)CCC(F)(F)F)CC1` was tested. Which “% Inhibition” value did it give?
The value was 5%.

What about the Z score of the same compound?
Its Z score is -0.6.

`COc1cc(NC(=O)Cn2c(N3CCN(c4ccccc4)CC3)nc(C)cc2=O)cc(OC)c1` was tested. Which “% Inhibition” value did it give?
Its value is -15%.

And the Z score?
The Z score was 1.32.

With `Cc1cc(NC(=O)CCN2CCc3c(ncn3C)C2)no1` as the compound, how does the “% Inhibition” value read?
The value was -1%.

What about the Z score of the same compound?
The Z score was 0.1.

Which results are given for `CN(CC1(O)CCOCC1)C(=O)NC1CC2CC1C1CCCC21` (centres undefined)?
% Inhibition: -4%; Z score: 0.55

For `Cc1noc(C)c1C(=O)N[C@@H](CC(C)C)c1nnc2ccccn12`, which “% Inhibition” value is on record?
Its value is -7%.

What about the Z score of the same compound?
Its Z score is 0.89.

For `CC[n+]1c(C)sc2cc(-c3ccccc3)sc21`, which “% Inhibition” value is on record?
Its value is 32%.

What about the Z score of the same compound?
The Z score was -4.14.

Which results are given for `COc1cccc(CNC(=O)CC[C@H]2CCCN(c3nc4ccccc4o3)C2)c1`?
% Inhibition: 6%; Z score: -0.77

With `CCOCCS(=O)(=O)N1C[C@H](COC)OC(C)(C)C1` as the compound, how does the “% Inhibition” value read?
Its value is -12%.

And the Z score?
The Z score was 1.55.

What does the source list for `CC(=O)Nc1ccc(Br)c(C(=O)N(C)Cc2ccc3c(c2)OCO3)n1`?
% Inhibition: -5%; Z score: 0.87

What does the source list for `O=C1NC2(CCCCCCC2)C(=O)N1CCOc1ccccc1F`?
% Inhibition: -7%; Z score: 1.07

Reference: ChEMBL document CHEMBL4888484, “Replenishing the malaria drug discovery pipeline: Screening and hit evaluation of the MMV Hit Generation Library 1 (HGL1) against asexual blood stage Plasmodium falciparum ,using a nano luciferase reporter read-out” (2022)
